# Data from PubChem BioAssay AID1745853 (National Center for Advancing Translational Sciences (NCATS), 2022).
# The other results are listed elsewhere or left out. These are further read-outs of the screen, such as a control signal, another cell line or another target. No call is given for them.
# Tests used:
# Test in all cases: Primary Screen for Target Class Profiling of Small Molecule Inhibitors of Methyltransferases
# [1] = biological target: Glycine N-methyltransferase (Homo sapiens) (UniProt Q14749); settings: purified enzyme, MTase-Glo SAH luminescence; measured here: GNMT inhibition; at 40 µM; stronger effect = lower value
# Summary of the method: (§1)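 Each enzyme was assayed with SAM and its substrate. SAH formation detected by MTase-Glo luminescence; single-point 40 uM screen[…].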
# [2] = biological target: Guanidinoacetate N-methyltransferase (Homo sapiens) (UniProt Q14353); settings: purified enzyme, MTase-Glo SAH luminescence; measured here: GAMT inhibition; at 40 µM; stronger effect = lower value
# Summary of the method: as §1
# [3] = biological target: Histamine N-methyltransferase (Homo sapiens) (UniProt P50135); settings: purified enzyme, MTase-Glo SAH luminescence; measured here: HNMT inhibition; at 40 µM; stronger effect = lower value
# Summary of the method: as §1
# [4] = biological target: Nicotinamide N-methyltransferase (Homo sapiens) (UniProt P40261); settings: purified enzyme, MTase-Glo SAH luminescence; measured here: NNMT inhibition; at 40 µM; stronger effect = lower value
# Summary of the method: as §1
# [5] = biological target: Phenylethanolamine N-methyltransferase (Homo sapiens) (UniProt P11086); settings: purified enzyme, MTase-Glo SAH luminescence; measured here: PNMT inhibition; at 40 µM; stronger effect = lower value
# Summary of the method: as §1
# % is set by controls: 0 for no effect and ±100 for the full control effect.
Structure (SMILES),"activity change, negative = inhibition [1]","activity change, negative = inhibition [2]","activity change, negative = inhibition [3]","activity change, negative = inhibition [4]","activity change, negative = inhibition [5]"
Cc1ccc(CNC(=O)c2cc3n(n2)CC(C)(C(=O)NCc2ccc(F)cc2)N(C)C3=O)o1 (stereo not given),7.64%,0%,1.93%,7.16%,6.77%
N[C@H]1CN(c2cncc(C(=O)N3CCCCC3)n2)C[C@@H]1C1CC1,0.444%,-0.465%,1.18%,-5.19%,13.6%
COCCNC(=O)[C@@H](C)C1CCc2c(C)cc(OC)c(C)c2[C@@H]1O (stereo not given in full),-6%,-4.72%,-3.11%,-8.42%,-4.48%
COC1CCC12CCN(Cc1ccc(F)c(F)c1)CC2 (stereo not given),-3.8%,-3.11%,-0.337%,-3.22%,10.7%
COC(=O)[C@H](CC1CCCCC1)NC(=O)[C@@H]1C[C@@H](NC(=O)Nc2cccc(F)c2)CCN1C(=O)CCC(=O)O,-1.55%,-3.62%,-0.564%,-0.511%,-2.35%
O=C(NCCc1ccccc1)c1ccc2c(=O)[nH]c3c(C(=O)NCC4CCCO4)sc(=S)n3c2c1 (stereo not given),-52.1%,-10.4%,-46.3%,-39.7%,-52.5%
C/C(=C\C1CCC(C)C2CCC3(C)OC123)C(=O)O (stereo not given),1.72%,-1.99%,8.83%,-17.2%,4.05%
Cc1ccc(-c2nc(CNS(=O)(=O)C3CC3)[nH]c2-c2ccccn2)cc1,-5.75%,-2.71%,-1.98%,-12.4%,-0.243%
N#Cc1ccc(CN2CCC(N3CCOC3=O)CC2)cc1,-6.41%,-10.9%,-5.69%,-13.3%,-9.78%
CCCCOC(=O)NS(=O)(=O)c1sc(CC(C)C)cc1-c1ccc(Cn2c(CC)nc3c(C)cc(C)nc32)cc1,-13.4%,8.19%,-1.98%,-20.1%,8.85%
Cc1cc(Cl)ccc1NC(=O)c1ncn2c1C(=O)N(C1CC1)C(C)(C(=O)NC1CCCC1)C2 (stereo not given),-2.86%,0%,6.84%,2.15%,3.08%
CN(C)CCN1CC2(CCCN(C(=O)CCCn3cnnn3)C2)CCC1=O (stereo not given),0.085%,-4.31%,0.559%,-4.36%,3.04%
O=c1c2ccccc2n2c(-c3ccc(Cl)cc3)nnc2n1Cc1ccccc1,-5.08%,3.61%,-1.2%,2.36%,-4.52%
COCCN1C(=O)c2ccccc2C(C(=O)NCc2ccc(Cl)cc2)C12CCCC2 (stereo not given),-8.36%,-8.25%,-1.86%,-7.29%,-0.684%
Cc1nn2c(c1-c1ccccc1N1CCCC1)N(C(=O)C1CCOCC1)CCC2,-17.4%,-10.1%,-4.45%,-17.5%,-8.42%
O=C(C1CCOC1)N1CCC(C(=O)O)(n2ccc(-c3ccco3)n2)CC1 (stereo not given),-6.03%,1.32%,1.2%,1.72%,14.8%
NCCOc1cc(C(=O)Nc2cc(OCCN)c3ccccc3n2)nc(C(=O)Nc2cc(OCCN)c3ccccc3n2)c1,-6.6%,0.955%,-63.4%,-13%,-3.6%
Cc1ccc2c(c1)C=Cc1cc(C)ccc1C2c1cn(Cc2ccc(C(=O)Nc3nn[nH]n3)o2)c(=O)[nH]c1=S,-11.2%,13.9%,1.46%,-27.8%,-4.54%
O=C(c1ccoc1)N1CCC(Nc2cccnc2)C1 (stereo not given),-39%,-18.8%,-1.68%,-6.05%,-29.4%
CC(=O)NC(CO)C(=O)N1CCc2c(nc(-c3cccnc3)nc2N(C)C)C1 (stereo not given),-5.66%,-8.01%,-4.48%,-13.9%,-8.23%

Structure (SMILES),"activity change, negative = inhibition [1]","activity change, negative = inhibition [2]","activity change, negative = inhibition [3]","activity change, negative = inhibition [4]","activity change, negative = inhibition [5]"
C=CC1(C)C=C2CC[C@H]3[C@@](C)(C(=O)O)CCC[C@]3(C)C2CC1 (stereo not given in full),-1.75%,1.66%,4.79%,-18.8%,-4.9%
O=C(NCCNC(=O)c1cccnc1)c1cccnc1,-0.184%,0%,3.35%,18.8%,1.09%
CC(C)CNC(=O)c1ccc2c(=O)n(CC(C)C)c3nn(Cc4ccc(F)cc4Cl)c(=O)n3c2c1,7.63%,2.03%,8.82%,7.16%,8.76%
Cc1cc(OCCN2CCOCC2)nn1-c1ccc2ccccc2c1,-7.15%,-7.6%,-5.47%,-19.2%,-8.6%
CC(C)C(=O)N1CCC2(CCCCO2)CC1,-1.04%,-2.15%,-0.077%,-7.5%,-4.09%
Oc1ccccc1O,-30%,13.2%,0.091%,-7.53%,6.98%
COc1cc(OC)c2c(=O)[nH]c(-c3cc(C)c(OCCO)c(C)c3)nc2c1,-15.6%,-5.19%,-15.7%,-25.7%,-12.4%
Cc1ccsc1-c1[nH]nc2ncc(-c3ccccc3O)nc12,-39.4%,-27.7%,-32.2%,-27.6%,-13%
CN(C(=O)c1ccc2oc(Cc3ccc(Cl)cc3)nc2c1)[C@H]1COC[C@@H]1O,-2.97%,-1.81%,0.613%,-10%,1.55%
O=C(Cn1c2ccccc2c2nc3n(c(=O)c21)CCS3)N1CCCC1,-3.31%,-6.23%,7.85%,-11.4%,2.9%
CC(C)(C)NC[C@H](O)COc1nsnc1N1CCOCC1,-5.17%,2.31%,-1.7%,-3.64%,6.75%
COCCN1CCC(C(=O)N2CCn3nc(Cc4ccccc4)cc3C2)C1 (stereo not given),-1.27%,0.569%,-4.06%,-1.31%,-0.245%
CC1(C(=O)NC2CCCC2)Cn2c(c(-n3cccc3)c3ccccc32)C(=O)N1CCc1cccs1 (stereo not given),4.49%,0%,3.13%,-3.64%,0.381%
O=C(CCn1ccc2cc(S(=O)(=O)N3CCCC3)ccc21)NC1CCN(Cc2ccccc2)CC1,-2.03%,5.36%,-11%,1.78%,2.2%
CC1(C)NC2N(C1=O)c1ccccc1C2(O)CC(C(=O)O)n1cnc2ccccc2c1=O (stereo not given),0%,0.567%,5.34%,-9.85%,1.68%
COC(=O)CNC(=O)c1cc(-c2cccnc2)c2nncn2n1,-2.13%,-0.551%,1.14%,-2.67%,-3.62%
Cc1ccc(CN2C(=O)OC(c3cccc(NC(=O)c4ccc(F)cc4)c3)C2C(=O)NC2CC2)cc1 (stereo not given),-4.97%,-2.75%,-3.38%,-4.81%,0.029%
CC(C)c1ccc(NC(=O)C(c2ccccc2)N(C)C(=O)Cc2c[nH]c3ccccc23)cc1 (stereo not given),-2.37%,-30.4%,10.1%,-38.7%,-11.2%
NC(=O)[C@H]1C[C@@H](O)[C@H](O)[C@H]2[C@@H]1SC(=Nc1ccc(Cl)cc1)N2CC1CCCCC1,-5.7%,-6.67%,-2.94%,-24.4%,-22.7%
CCOCCCNc1nc2c(S(=O)(=O)c3ccc(Cl)cc3)nnn2c2ccccc12,3.84%,0.491%,5.79%,5.21%,0.996%
